This passage reports Kd results from article PMC5534435, “The Amyloid Precursor Protein Is a Conserved Receptor for Slit to Mediate Axon Guidance” (eNeuro, 2017).

The assay deals with T1, FL Slit2 fused N terminally to the human alkaline phosphatase sequence (human, UniProt O94813 31-1529).
T1 construct: Slit2, full length, put in place of Netrin 5 in the vector Ntn5.a-AP-His (Addgene); also called AP-tagged Slit2; alkaline phosphatase (AP)-tagged Slit2; source: HEK293T, transfected, in supernatant; not shown: alkaline phosphatase (human), C-terminal, kept
T1 sequence (looked up): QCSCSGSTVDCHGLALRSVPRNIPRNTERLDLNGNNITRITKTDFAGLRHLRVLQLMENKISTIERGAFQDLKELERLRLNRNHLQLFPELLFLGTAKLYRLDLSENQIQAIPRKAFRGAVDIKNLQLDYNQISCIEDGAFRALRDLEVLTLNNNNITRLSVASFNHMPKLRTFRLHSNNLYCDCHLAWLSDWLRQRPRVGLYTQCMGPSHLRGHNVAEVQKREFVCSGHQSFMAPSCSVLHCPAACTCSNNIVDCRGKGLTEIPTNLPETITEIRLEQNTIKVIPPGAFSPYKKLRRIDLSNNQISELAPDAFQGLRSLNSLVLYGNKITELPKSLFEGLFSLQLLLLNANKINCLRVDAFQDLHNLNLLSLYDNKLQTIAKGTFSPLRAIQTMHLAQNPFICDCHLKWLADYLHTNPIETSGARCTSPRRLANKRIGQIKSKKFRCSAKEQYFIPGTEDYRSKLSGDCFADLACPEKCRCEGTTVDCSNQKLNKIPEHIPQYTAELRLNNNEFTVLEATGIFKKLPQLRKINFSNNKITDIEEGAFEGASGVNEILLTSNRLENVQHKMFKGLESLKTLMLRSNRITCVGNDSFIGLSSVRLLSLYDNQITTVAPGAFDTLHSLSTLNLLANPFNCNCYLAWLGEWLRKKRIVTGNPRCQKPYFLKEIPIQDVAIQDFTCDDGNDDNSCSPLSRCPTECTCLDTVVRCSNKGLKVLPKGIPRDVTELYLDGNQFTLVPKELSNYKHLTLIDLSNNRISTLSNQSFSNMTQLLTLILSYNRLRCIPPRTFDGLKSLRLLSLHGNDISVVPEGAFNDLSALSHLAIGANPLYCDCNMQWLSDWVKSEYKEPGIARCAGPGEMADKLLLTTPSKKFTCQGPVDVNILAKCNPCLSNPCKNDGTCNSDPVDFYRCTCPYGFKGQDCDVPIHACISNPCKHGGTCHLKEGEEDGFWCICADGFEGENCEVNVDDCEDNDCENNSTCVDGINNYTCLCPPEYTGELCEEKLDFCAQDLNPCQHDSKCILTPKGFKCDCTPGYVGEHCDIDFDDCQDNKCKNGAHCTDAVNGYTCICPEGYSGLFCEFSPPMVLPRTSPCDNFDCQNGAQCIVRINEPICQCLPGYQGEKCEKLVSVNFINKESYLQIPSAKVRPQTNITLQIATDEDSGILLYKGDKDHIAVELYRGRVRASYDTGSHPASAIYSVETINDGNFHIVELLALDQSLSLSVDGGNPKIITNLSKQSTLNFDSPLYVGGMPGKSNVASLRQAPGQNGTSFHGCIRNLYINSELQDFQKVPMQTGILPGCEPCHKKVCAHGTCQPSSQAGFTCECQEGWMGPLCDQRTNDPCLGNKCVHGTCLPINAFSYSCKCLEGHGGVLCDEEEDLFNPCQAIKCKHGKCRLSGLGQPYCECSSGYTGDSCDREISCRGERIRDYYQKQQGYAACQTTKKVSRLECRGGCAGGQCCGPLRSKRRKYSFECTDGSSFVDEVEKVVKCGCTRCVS
Kind of assay: binding of alkaline phosphatase-tagged ligand to transfected cells; HEK293 cells transfected with FL APP or HA-Robo incubated with serial dilutions of supernatants with AP-tagged Slit2 and 1 μg/ml heparin, 2 h at 37°C; AP activity in cell lysates; Hill equation, Scatchard plot. The note with it: partners not purified.

B1: Full-length (FL) human APP695 (receptor)
chain: not shown
notes: amyloid precursor protein, human, isoform APP695 (695 residues), full length; no tag is named; precipitated with the APPc antibody; also called FL APP; amyloid precursor protein; source: HEK293, transfected
On to B1, for which the Kd worked out at 2.7 nM.
